# Measurements taken from the supplement of paper PMC8728848.
# This is one part of the list.
# B1: Siglec-9 (Homo sapiens), Q9Y336 (protein)
# chain: MLLLLLPLLWGRERAEGQTSKLLTMQSSVTVQEGLCVHVPCSFSYPSHGWIYPGPVVHGYWFREGANTDQDAPVATNNPARAVWEETRDRFHLLGDPHTKNCTLSIRDARRSDAGRYFFKMEKGSIKWNYKHHRLSVNVTALTHRPNILIPGTLESGCPQNLTCSVPWACEQGTPPMISWIGTSVSPLDPSTTRSSVLTLIPQPQDHGTSLTCQVTFPGASVTTNKTVHLNVSYPPQNLTMTVFQGDGTVSTVLGNGSSLSLPEGQSLRLVCAVDAVDSNPPARLSLSWRGLTLCPSQPSNPGVLELPWVHLRDAAEFTCRAQNPLGSQQVYLNVSLQSKATSGVTQGVVGGAGATALVFLSFCVIFVVVRSCRKKSARPAAGVGDTGIEDANAVRGSASQGPLTEPWAEDSPPDQPPPASARSSVGEGELQYASLSFQMVKPWDSRGQEATDTEYSEIKIHR
# Tests used:
# Assay in all cases: glycan array binding signal (z-score within array); higher = stronger binding
# Settings in all cases: glycan notation: IUPAC condensed, linker removed; mutation: R120K
# Glc(b1-4)Glc = target: Glc(b1-4)Glc
# Procedure, shortened: (§1)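 Columns mapping to the same glycan were averaged after glycan names were converted to IUPAC-condensed notation. The data come from 3228 arrays in the Consortium for Functional Glycomics database, limited to those with an available protein sequence. Binding is reported as a within-array Z-score averaged across arrays of one protein sequence and across linkers.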
# Glc(b1-6)Glc = target: Glc(b1-6)Glc
# Procedure, shortened: as §1
# GlcA(b1-3)Gal = target: GlcA(b1-3)Gal
# Procedure, shortened: as §1
# GlcA(b1-3)GlcNAc = target: GlcA(b1-3)GlcNAc
# Procedure, shortened: as §1
# GlcA(b1-6)Gal = target: GlcA(b1-6)Gal
# Procedure, shortened: as §1
# [1] = target: GlcA3S(b1-3)Gal(b1-4)GlcNAc(b1-2)Man
# Procedure, shortened: as §1
# [2] = target: GlcA3S(b1-3)Gal(b1-4)GlcNAc(b1-3)Gal(b1-4)Glc
# Procedure, shortened: as §1
# [3] = target: GlcNAc(a1-3)Gal(b1-4)GlcNAc
# Procedure, shortened: as §1
# [4] = target: GlcNAc(a1-4)Gal(b1-3)GlcNAc
# Procedure, shortened: as §1
# [5] = target: GlcNAc(a1-4)Gal(b1-4)GalNAc
# Procedure, shortened: as §1
# [6] = target: GlcNAc(a1-4)Gal(b1-4)GlcNAc
# Procedure, shortened: as §1
# [7] = target: GlcNAc(a1-4)Gal(b1-4)GlcNAc(b1-3)Gal(b1-4)Glc
# Procedure, shortened: as §1
# [8] = target: GlcNAc(a1-4)Gal(b1-4)GlcNAc(b1-3)Gal(b1-4)GlcNAc
# Procedure, shortened: as §1
# [9] = target: GlcNAc(a1-4)Gal(b1-4)GlcNAc(b1-3)Gal(b1-4)GlcNAc(b1-3)Gal(b1-4)GlcNAc
# Procedure, shortened: as §1
# [10] = target: GlcNAc(a1-4)Gal(b1-4)GlcNAc(b1-3)Gal(b1-4)[Fuc(a1-3)]GlcNAc(b1-3)Gal(b1-4)[Fuc(a1-3)]GlcNAc
# Procedure, shortened: as §1
# [11] = target: GlcNAc(a1-6)Gal(b1-4)GlcNAc
# Procedure, shortened: as §1
# [12] = target: GlcNAc(b1-2)Gal(b1-3)GalNAc
# Procedure, shortened: as §1
# [13] = target: GlcNAc(b1-2)Man(a1-3)[GlcNAc(b1-2)Man(a1-6)]Man(b1-4)GlcNAc(b1-4)GlcNAc
# Procedure, shortened: as §1
# [14] = target: GlcNAc(b1-2)Man(a1-3)[GlcNAc(b1-2)Man(a1-6)]Man(b1-4)GlcNAc(b1-4)[Fuc(a1-6)]GlcNAc
# Procedure, shortened: as §1
# [15] = target: GlcNAc(b1-2)Man(a1-3)[GlcNAc(b1-4)][GlcNAc(b1-2)Man(a1-6)]Man(b1-4)GlcNAc(b1-4)GlcNAc
# Procedure, shortened: as §1
# [16] = target: GlcNAc(b1-2)Man(a1-3)[GlcNAc(b1-4)][GlcNAc(b1-2)Man(a1-6)]Man(b1-4)GlcNAc(b1-4)[Fuc(a1-6)]GlcNAc
# Procedure, shortened: as §1
# [17] = target: GlcNAc(b1-2)[GlcNAc(b1-4)]Man(a1-3)[GlcNAc(b1-2)Man(a1-6)]Man(b1-4)GlcNAc(b1-4)GlcNAc
# Procedure, shortened: as §1
# [18] = target: GlcNAc(b1-2)[GlcNAc(b1-4)]Man(a1-3)[GlcNAc(b1-4)][GlcNAc(b1-2)Man(a1-6)]Man(b1-4)GlcNAc(b1-4)GlcNAc
# Procedure, shortened: as §1
# [19] = target: GlcNAc(b1-2)[GlcNAc(b1-4)]Man(a1-3)[GlcNAc(b1-4)][GlcNAc(b1-2)[GlcNAc(b1-6)]Man(a1-6)]Man(b1-4)GlcNAc(b1-4)GlcNAc
# Procedure, shortened: as §1
# [20] = target: GlcNAc(b1-2)[GlcNAc(b1-4)]Man(a1-3)[GlcNAc(b1-4)][GlcNAc(b1-2)[GlcNAc(b1-6)]Man(a1-6)]Man(b1-4)GlcNAc(b1-4)[Fuc(a1-6)]GlcNAc
# Procedure, shortened: as §1
# [21] = target: GlcNAc(b1-2)[GlcNAc(b1-6)]Man(a1-6)[GlcNAc(b1-2)Man(a1-3)]Man(b1-4)GlcNAc(b1-4)GlcNAc
# Procedure, shortened: as §1
# [22] = target: GlcNAc(b1-2)[GlcNAc(b1-6)]Man(a1-6)[GlcNAc(b1-2)Man(a1-3)]Man(b1-4)GlcNAc(b1-4)[Fuc(a1-6)]GlcNAc
# Procedure, shortened: as §1
# [23] = target: GlcNAc(b1-2)[GlcNAc(b1-6)]Man(a1-6)[GlcNAc(b1-4)][GlcNAc(b1-2)Man(a1-3)]Man(b1-4)GlcNAc(b1-4)GlcNAc
# Procedure, shortened: as §1
# GlcNAc(b1-3)Fuc = target: GlcNAc(b1-3)Fuc
# Procedure, shortened: as §1
# GlcNAc(b1-3)Gal = target: GlcNAc(b1-3)Gal
# Procedure, shortened: as §1
# [24] = target: GlcNAc(b1-3)Gal(b1-3)GalNAc
# Procedure, shortened: as §1
# GlcNAc(b1-3)Gal(b1-4)Glc = target: GlcNAc(b1-3)Gal(b1-4)Glc
# Procedure, shortened: as §1
# [25] = target: GlcNAc(b1-3)Gal(b1-4)GlcNAc
# Procedure, shortened: as §1
# [26] = target: GlcNAc(b1-3)Gal(b1-4)GlcNAc(b1-2)Man(a1-3)[GlcNAc(b1-3)Gal(b1-4)GlcNAc(b1-2)Man(a1-6)]Man(b1-4)GlcNAc(b1-4)GlcNAc
# Procedure, shortened: as §1
# [27] = target: GlcNAc(b1-3)Gal(b1-4)GlcNAc(b1-2)Man(a1-3)[GlcNAc(b1-3)Gal(b1-4)GlcNAc(b1-2)Man(a1-6)]Man(b1-4)GlcNAc(b1-4)[Fuc(a1-6)]GlcNAc
# Procedure, shortened: as §1
# [28] = target: GlcNAc(b1-3)Gal(b1-4)GlcNAc(b1-2)[GlcNAc(b1-3)Gal(b1-4)GlcNAc(b1-6)]Man(a1-6)[GlcNAc(b1-3)Gal(b1-4)GlcNAc(b1-2)Man(a1-3)]Man(b1-4)GlcNAc(b1-4)GlcNAc
# Procedure, shortened: as §1
# [29] = target: GlcNAc(b1-3)Gal(b1-4)GlcNAc(b1-3)Gal(b1-4)GlcNAc
# Procedure, shortened: as §1
# [30] = target: GlcNAc(b1-3)Gal(b1-4)GlcNAc(b1-3)Gal(b1-4)GlcNAc(b1-2)Man(a1-3)[GlcNAc(b1-3)Gal(b1-4)GlcNAc(b1-3)Gal(b1-4)GlcNAc(b1-2)Man(a1-6)]Man(b1-4)GlcNAc(b1-4)GlcNAc
# Procedure, shortened: as §1
# [31] = target: GlcNAc(b1-3)Gal(b1-4)GlcNAc(b1-3)Gal(b1-4)GlcNAc(b1-2)Man(a1-3)[GlcNAc(b1-3)Gal(b1-4)GlcNAc(b1-3)Gal(b1-4)GlcNAc(b1-2)Man(a1-6)]Man(b1-4)GlcNAc(b1-4)[Fuc(a1-6)]GlcNAc
# Procedure, shortened: as §1
# [32] = target: GlcNAc(b1-3)Gal(b1-4)GlcNAc(b1-3)Gal(b1-4)GlcNAc(b1-2)[GlcNAc(b1-3)Gal(b1-4)GlcNAc(b1-3)Gal(b1-4)GlcNAc(b1-6)]Man(a1-6)[GlcNAc(b1-3)Gal(b1-4)GlcNAc(b1-3)Gal(b1-4)GlcNAc(b1-2)Man(a1-3)]Man(b1-4)GlcNAc(b1-4)[Fuc(a1-6)]GlcNAc
# Procedure, shortened: as §1
# [33] = target: GlcNAc(b1-3)Gal(b1-4)GlcNAc(b1-3)Gal(b1-4)GlcNAc(b1-3)Gal(b1-4)GlcNAc(b1-2)Man(a1-3)[GlcNAc(b1-3)Gal(b1-4)GlcNAc(b1-3)Gal(b1-4)GlcNAc(b1-3)Gal(b1-4)GlcNAc(b1-2)Man(a1-6)]Man(b1-4)GlcNAc(b1-4)GlcNAc
# Procedure, shortened: as §1
# [34] = target: GlcNAc(b1-3)Gal(b1-4)GlcNAc(b1-3)Gal(b1-4)GlcNAc(b1-3)Gal(b1-4)GlcNAc(b1-2)Man(a1-3)[GlcNAc(b1-3)Gal(b1-4)GlcNAc(b1-3)Gal(b1-4)GlcNAc(b1-3)Gal(b1-4)GlcNAc(b1-2)Man(a1-6)]Man(b1-4)GlcNAc(b1-4)[Fuc(a1-6)]GlcNAc
# Procedure, shortened: as §1
# [35] = target: GlcNAc(b1-3)Gal(b1-4)GlcNAc(b1-3)Gal(b1-4)GlcNAc(b1-3)Gal(b1-4)GlcNAc(b1-2)[GlcNAc(b1-3)Gal(b1-4)GlcNAc(b1-3)Gal(b1-4)GlcNAc(b1-3)Gal(b1-4)GlcNAc(b1-6)]Man(a1-6)[GlcNAc(b1-3)Gal(b1-4)GlcNAc(b1-3)Gal(b1-4)GlcNAc(b1-3)Gal(b1-4)GlcNAc(b1-2)Man(a1-3)]Man(b1-4)GlcNAc(b1-4)[Fuc(a1-6)]GlcNAc
# Procedure, shortened: as §1
# [36] = target: GlcNAc(b1-3)Gal(b1-4)GlcNAc(b1-3)Gal(b1-4)GlcNAc(b1-3)Gal(b1-4)GlcNAc(b1-3)Gal(b1-4)GlcNAc(b1-2)Man(a1-3)[GlcNAc(b1-3)Gal(b1-4)GlcNAc(b1-3)Gal(b1-4)GlcNAc(b1-3)Gal(b1-4)GlcNAc(b1-3)Gal(b1-4)GlcNAc(b1-2)Man(a1-6)]Man(b1-4)GlcNAc(b1-4)GlcNAc
# Procedure, shortened: as §1
# [37] = target: GlcNAc(b1-3)Gal(b1-4)GlcNAc(b1-3)Gal(b1-4)GlcNAc(b1-3)Gal(b1-4)GlcNAc(b1-3)Gal(b1-4)GlcNAc(b1-2)Man(a1-3)[GlcNAc(b1-3)Gal(b1-4)GlcNAc(b1-3)Gal(b1-4)GlcNAc(b1-3)Gal(b1-4)GlcNAc(b1-3)Gal(b1-4)GlcNAc(b1-2)Man(a1-6)]Man(b1-4)GlcNAc(b1-4)[Fuc(a1-6)]GlcNAc
# Procedure, shortened: as §1
binder,measurement,setting,value
B1,glycan array binding signal (z-score),Glc(b1-4)Glc,-0.264
same,glycan array binding signal (z-score),Glc(b1-6)Glc,0.092
same,glycan array binding signal (z-score),GlcA(b1-3)Gal,-0.277
same,glycan array binding signal (z-score),GlcA(b1-3)GlcNAc,-0.179
same,glycan array binding signal (z-score),GlcA(b1-6)Gal,0.061
same,glycan array binding signal (z-score),[1],0.03
same,glycan array binding signal (z-score),[2],0.216
same,glycan array binding signal (z-score),[3],-0.474
same,glycan array binding signal (z-score),[4],-0.505
same,glycan array binding signal (z-score),[5],-0.511
same,glycan array binding signal (z-score),[6],-0.366
same,glycan array binding signal (z-score),[7],-0.466
same,glycan array binding signal (z-score),[8],-0.374
same,glycan array binding signal (z-score),[9],-0.535
same,glycan array binding signal (z-score),[10],0.551
same,glycan array binding signal (z-score),[11],-0.661
same,glycan array binding signal (z-score),[12],-0.283
same,glycan array binding signal (z-score),[13],-0.141
same,glycan array binding signal (z-score),[14],-0.036
same,glycan array binding signal (z-score),[15],0.622
same,glycan array binding signal (z-score),[16],-0.232
same,glycan array binding signal (z-score),[17],-0.081
same,glycan array binding signal (z-score),[18],8.32
same,glycan array binding signal (z-score),[19],-0.189
same,glycan array binding signal (z-score),[20],-0.415
same,glycan array binding signal (z-score),[21],-0.232
same,glycan array binding signal (z-score),[22],-0.377
same,glycan array binding signal (z-score),[23],-0.476
same,glycan array binding signal (z-score),GlcNAc(b1-3)Fuc,-0.166
same,glycan array binding signal (z-score),GlcNAc(b1-3)Gal,-0.602
same,glycan array binding signal (z-score),[24],-0.423
same,glycan array binding signal (z-score),GlcNAc(b1-3)Gal(b1-4)Glc,-0.244
same,glycan array binding signal (z-score),[25],-0.447
same,glycan array binding signal (z-score),[26],-0.454
same,glycan array binding signal (z-score),[27],0.432
same,glycan array binding signal (z-score),[28],-0.559
same,glycan array binding signal (z-score),[29],-0.425
same,glycan array binding signal (z-score),[30],-0.201
same,glycan array binding signal (z-score),[31],0.152
same,glycan array binding signal (z-score),[32],0.062
same,glycan array binding signal (z-score),[33],-0.39
same,glycan array binding signal (z-score),[34],-0.214
same,glycan array binding signal (z-score),[35],0.565
same,glycan array binding signal (z-score),[36],-0.16
same,glycan array binding signal (z-score),[37],-0.305
